# Reference: the supplement of paper PMC11417369
# ± gives the standard deviation of the averaged measurements. This is one part of the list.
# System: PfAP2-I AP2 domain 3 (GST-tagged)
# Assay: gcPBM binding intensity (ln(normalized median fluorescence intensity)); higher = stronger DNA binding
# Summary of the method: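 Alexa488 anti-GST antibody, scanned at 488 nm, detected GST-tagged P. falciparum DNA-binding domains that had been expressed in E. coli and incubated for 1 h on an Agilent 4 × 180k array. The array carried primer-extended double-stranded 36-bp intergenic genomic probes and negative controls. Binding intensity is the highest Masliner-normalised natural-log median intensity across replicate spots of either orientation of each probe.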
row,Sequence,gcPBM binding intensity (ln)
1,ATATATCAAAAATGATGACATAAATATATTAATTTA [TGCATGCA_negctrl_site259],7.22 ± 0.46
2,TATCTGTATGTATGTACACACAAAAAATGGAATATA [CACACA_site5947],7.84 ± 0.38
3,TTTTTGTAAAATAAACGTACAAAACAATTGTTCATT [XGTACX_site6537],7.82 ± 0.4
4,TTATATACATAAAAATGTACTTTTTATAAAATATAT [XGTACX_site8281],7.67 ± 0.32
5,AAGTTAGTATTCTGCTGTACTTCTATATATAAGTGT [XGTACX_site7678],7.72 ± 0.59
6,GAATGAATCAATGTTTGTACTCAACAAATTATAAGG [XGTACX_site5122],7.92 ± 0.38
7,GCCTTCCTTCTAAATGCACACGGAAAGTATAAATGT [CACACA_site8797],9.83 ± 0.18
8,TATATATAATACAGTATGCACTATTTTTATTAAAAA,9.19 ± 0.13
9,CAATAATTTTTTAAATGTACTTTATTATAATTTAAT [XGTACX_site135],7.54 ± 0.38
10,ACAACATTTCTCAAATGTACATAATATAATTTATAT [XGTACX_site3224],7.61 ± 0.58
11,TATTAATTCTTAAATTTTTTTTTTTAATTCCTAGGA [CACACA_negctrl_site879],7.12 ± 0.39
12,TTTTCTTACATCTTATAAAAAAAAATATATATTATA [GTGCAC_negctrl_site118],7.55 ± 0.37
13,GTCTAACAACCAAACGCACACACACTAATAAAAAAA [CACACA_site8026],8.88 ± 0.11
14,CAATCATGGGTTTACACACACATGCATGTGAAAATT [CACACA_site1349],7.74 ± 0.65
15,AAAAAAAAAAAAAAAAAAAAAAAAATATATAATTTA [CACACA_negctrl_site583],9.695 ± 0.007
16,AACCAAACAAATAAACGTACAAACATTACATATATT [XGTACX_site2265],7.8 ± 0.39
17,GATGATAATAAATTTATATATAATATTATCTTATGT [GTGCAC_negctrl_site672],7.48 ± 0.51
18,CATATTAAAAATTATTGTACATATTAATGAATATAA [XGTACX_site2734],7.66 ± 0.085
19,ATTTTTGCAGTAATTAAATAGACAAAATGAAAAAAA [CACACA_negctrl_site1537],8.36 ± 0.38

row,Sequence,gcPBM binding intensity (ln)
1,AAAATAATATTTAATACACACATAATTTTAATATAA [CACACA_site4588],7.58 ± 0.5
2,TACTTATATTATTTTATTATTAAATTTAAAACGAAA [CACACA_negctrl_site736],7.67 ± 0.46
3,ACAATAAAGAAGTGTACACATATATCAATAAAAAAA [CACACA_site5228],8.22 ± 0.33
4,ATATACACACAAAAACGTACACATATATATATGTAT [XGTACX_site2673],8.17 ± 0.085
5,GGTATAATAATATATAGTACACACAAAAATGGAAGT [XGTACX_site7058],8.46 ± 0.61
6,AAAAAAAAAAAAAGCACACATATAAATATGAATAAA [CACACA_site1393],8.39 ± 0.085
7,AAAAAAAAAAAAAACACACACATACACCCAAAAATG [CACACA_site4223],8.4 ± 0.6
8,TTTTTATAAATACACATAAATATATATATATATATA [TGCATGCA_negctrl_site393],9.18 ± 0.2
9,ACACAAAAAAATATATATATATATATATATATGTTA [CACACA_negctrl_site55],8.14 ± 0.29
10,ATGCATTATTAGAATACACACCATACGCATATTTAT [CACACA_site4319],8.41 ± 0.33
11,AAAAAAAAAAAAAAATGTACATTTTGAAAGGATATA [XGTACX_site8217],8.38 ± 0.54
12,TAAAGAAAAAGAGAATGTACATGAGAAAAGTATACT [XGTACX_site7472],8.18 ± 0.89
13,AAAAAAGATAATTATGCACACACACCCACCCACCCA [CACACA_site8825],9.99 ± 0.18
14,AGAAAAAAAAAAAAATGTACAGACTTTTTCTTATAA [XGTACX_site6481],7.6 ± 0.51
15,AATCACAACAGACACACACACAAAAAAAAAAAAAAA [CACACA_site1442],8.08 ± 0.67
16,TTAATATAATAGAAGTGTACACACATATTTATGTGT [XGTACX_site6672],8.12 ± 0.2
17,ATATGTTATATAAATATATATATATATATATATATA [TGCATGCA_negctrl_site594],9.23 ± 0.59
18,TAATAATAAAAATAAACACACATATATCTGTATTTA [CACACA_site5572],7.26 ± 0.41
19,TATTTATAAACATACGCACACATTAAAATATATATA [CACACA_site6051],8.16 ± 0.32

row,Sequence,gcPBM binding intensity (ln)
1,ATATATATATATATAGTGCATAAAATAAGTTTCTAA,10.8 ± 0.21
2,GGTGGAAACAATTACACACACACAAAAAAAAAAAAA [CACACA_site3208],8.11 ± 0.44
3,TATACAATATATTTTGGTACACAAACAAAAAAATAT [XGTACX_site2522],8.13 ± 0.64
4,ATTAAAAGAACCAAGTGTACATTCTATATATAAAAA [XGTACX_site4260],7.82 ± 0.59
5,ATATTATGATCTATTTTTATATTCTATTTGATAAAT [CACACA_negctrl_site1070],7.54 ± 0.65
6,GTTCACCAAAGGTAACGTACACAAACATATATATAT [XGTACX_site1073],9.09 ± 0.11
7,GAAAAAGACAAAAGGTGTACAATATGAAATATATAT [XGTACX_site373],8.2 ± 0.5
8,TAATTCTAAATAAATGTACACACAAAAATAAATGTA [CACACA_site8509],7.78 ± 0.45
9,TTGATAAAATGGGAGAAATTAAAAAGGAAAAAAAAA [CACACA_negctrl_site1279],7.57 ± 0.76
10,CTATTTTATATGTGCACACATATACACCCACAAATA [CACACA_site1131],10.5 ± 0.22
11,TTATAAAATTTTCTTCTATATTTTAATTATTCTCAT [TGCATGCA_negctrl_site571],7.32 ± 0.81
12,TATATATATATTATATGTACATAAATATTTATACTC [XGTACX_site114],8.83 ± 0.3
13,TCTCATAGGAAACACACACACACACCCACATATATA [CACACA_site1738],8.11 ± 0.24
14,TAAATAAAAAAAAAAAGTACATACATACAAACATAT [XGTACX_site4427],7.79 ± 0.47
15,ATATATGTGCGCGTATGTACATAAAATAAATATACA [XGTACX_site2689],8.57 ± 0.64
16,ATATATTTTTTAAATTTAAAAATTATAAAATTTATA [TGCATGCA_negctrl_site36],7.62 ± 0.25
17,TGGGTCTCTAACTGGTGTACTATTTACATATTATAC [XGTACX_site8593],8.26 ± 0.45
18,TATGATTTTAACAACTGTACAATATAATAAATCTAA [XGTACX_site2198],7.62 ± 0.23
